Consider 50 cell lines from the supplement of paper PMC4967469.

Compound in one test: FC(F)c1nc2ccccc2n1-c1nc(N2CCOCC2)nc(N2CCOCC2)n1 [ZSTK474]
Description: Viability of human cancer cell lines after 72 h of drug (GDSC screen). As for the experimental part: (§1)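 Human cancer cell lines in 384-well plates, medium with 10% serum, drug for 72 h over a 256-fold dose range (nine 2-fold or five 4-fold steps up to the top dose). Adherent lines were fixed and stained with the nucleic acid dye Syto60, suspension lines read with resazurin; signal relative to control wells, capped at 0 and 100%. One two-parameter sigmoid per drug and line, fitted in a mixed model over all curves with the slope shared within a line.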

Compound in the next test: COCC(=O)NC/C=C/c1ccc2ncnc(Nc3ccc(Oc4ccc(C)nc4)c(C)c3)c2c1 [CP724714]
Described as above. The conditions noted are these: top dose 10.24 µM; top dose inferred. As for the experimental part:
as §1

Broadly, the IC50 is the concentration needed to halve the response being measured.

IC50 is the fitted dose that halves viability relative to control wells, and lower means more sensitive; a fit beyond the top or the lowest dose is shown as a bound at that dose. AUC is the area under the same curve over the 256-fold range up to the top dose, as a fraction: 1 means no effect, lower means more sensitive. For some of these results: Any top dose called inferred was calculated from the reported fits. Where only a bound is given, the exact number is not on record here.

On to “8-MG-BA (glioma, adherent, top dose 5.12 µM)”, for which, in the test with ZSTK474, the AUC came out at 0.796 and the IC50 came out at 2.22 µM.
For the cell line “22RV1 (prostate, adherent, top dose 5.12 µM)”, in the test with ZSTK474, the AUC came to 0.58 and the IC50 was found to be 0.559 µM.
As to “42-MG-BA (glioma, adherent, top dose 5.12 µM)”, in the test with ZSTK474, the AUC was 0.914 and the concentration for half-maximal inhibition (IC50) was more than 5.12 µM.
The matching figures for “201T (lung adenocarcinoma, adherent, top dose 5.12 µM)”: 0.73 and 1.74 µM.
Consider “451Lu (melanoma, adherent, top dose 5.12 µM)”, for which, in the test with ZSTK474, the AUC is 0.929 and the IC50 was more than 5.12 µM.
For the cell line “639-V (bladder, adherent, top dose 5.12 µM)”, in the test with ZSTK474, the AUC turned out to be 0.982 and the IC50 was more than 5.12 µM.
For the cell line “647-V (bladder, adherent, top dose 5.12 µM)”, in the test with ZSTK474, the AUC was 0.759 and the IC50 amounted to 1.8 µM.
With “697 (lymphoblastic leukaemia, suspension, top dose 5.12 µM)”, in the test with ZSTK474, the AUC was determined as 0.275 and the IC50 came to 0.0862 µM.
Consider “769-P (kidney, adherent, top dose 5.12 µM)”, for which, in the test with ZSTK474, the AUC worked out at 0.68 and the IC50 was found to be 1.07 µM.
The matching figures for “786-0 (kidney, adherent, top dose 5.12 µM)”: 0.679 and 0.969 µM.
Consider “5637 (bladder, adherent, top dose 5.12 µM)”, for which, in the test with ZSTK474, the AUC stood at 0.72 and the IC50 is 1.25 µM.
Turning to “8305C (thyroid, adherent, top dose 5.12 µM)”, in the test with ZSTK474, the AUC is 0.883 and the IC50 is more than 5.12 µM.
For the cell line “8505C (thyroid, adherent, top dose 5.12 µM)”, in the test with ZSTK474, the AUC was determined as 0.815 and the IC50 was determined as 3.02 µM.
Turning to “23132-87 (stomach, adherent, top dose 5.12 µM)”, in the test with ZSTK474, the AUC stood at 0.681 and the IC50 is 1.05 µM.
Turning to “A3-KAW (B-cell lymphoma, suspension, top dose 5.12 µM)”, in the test with ZSTK474, the AUC was found to be 0.823 and the IC50 amounted to 2.24 µM.
The corresponding values for “A4-Fuk (B-cell lymphoma, suspension, top dose 5.12 µM)” are 0.793 and 2.46 µM.
Turning to “A101D (melanoma, adherent, top dose 5.12 µM)”, in the test with ZSTK474, the AUC was determined as 0.926 and the IC50 was more than 5.12 µM.
Regarding “A172 (glioma, adherent, top dose 5.12 µM)”, in the test with ZSTK474, the AUC came to 0.978 and the IC50 was more than 5.12 µM.
For the cell line “A204 (rhabdomyosarcoma, adherent, top dose 5.12 µM)”, in the test with ZSTK474, the AUC was determined as 0.601 and the IC50 came to 0.657 µM.
The matching figures for “A253 (head and neck, adherent, top dose 5.12 µM)”: 0.908 and more than 5.12 µM.
For “A375 (melanoma, adherent, top dose 5.12 µM)”, in the test with ZSTK474, the AUC came out at 0.835 and the IC50 was found to be 2.55 µM.
The matching figures for A388 (skin, adherent, top dose 5.12 µM): 0.765 and 2.15 µM.
As to “A427 (non-small cell lung carcinoma, adherent, top dose 5.12 µM)”, in the test with ZSTK474, the AUC turned out to be 0.923 and the IC50 is more than 5.12 µM.
With A431 (skin, adherent, top dose 5.12 µM), in the test with ZSTK474, the AUC was determined as 0.726 and the IC50 was 1.36 µM.
On to “A498 (kidney, adherent, top dose 5.12 µM)”, for which, in the test with ZSTK474, the AUC is 0.86 and the IC50 is more than 5.12 µM.
The matching figures for “A673 (rhabdomyosarcoma, adherent, top dose 5.12 µM)”: 0.742 and 1.44 µM.
For the cell line “A704 (kidney, adherent, top dose 5.12 µM)”, in the test with ZSTK474, the AUC was 0.907 and the IC50 was more than 5.12 µM.
On to “A2058 (melanoma, adherent, top dose 5.12 µM)”, for which, in the test with ZSTK474, the AUC is 0.806 and the IC50 is 2.27 µM.
On to “A2780 (ovary, semi-adherent, top dose 5.12 µM)”, for which, in the test with ZSTK474, the AUC came out at 0.535 and the IC50 was 0.4 µM.
In the case of “ABC-1 (lung adenocarcinoma, adherent, top dose 5.12 µM)”, in the test with ZSTK474, the AUC was determined as 0.702 and the IC50 turned out to be 1.35 µM.
“ACHN (kidney, adherent, top dose 5.12 µM)”: in the test with ZSTK474, the AUC was 0.784 and the IC50 is 2.51 µM.
Consider “AGS (stomach, adherent, top dose 5.12 µM)”, for which, in the test with ZSTK474, the AUC came out at 0.871 and the IC50 amounted to 4 µM.
In the case of “ALL-PO (lymphoblastic leukaemia, suspension, top dose 5.12 µM)”, in the test with ZSTK474, the AUC is 0.415 and the IC50 was 0.184 µM.
For the cell line “ALL-SIL (T-cell leukaemia, suspension, top dose 5.12 µM)”, in the test with ZSTK474, the AUC was 0.394 and the IC50 came out at 0.171 µM.
Take “AM-38 (glioma, semi-adherent, top dose 5.12 µM)”: in the test with ZSTK474, the AUC came out at 0.672 and the IC50 came out at 0.977 µM.
As for “AMO-1 (haematopoietic neoplasm, suspension, top dose 5.12 µM)”, in the test with ZSTK474, the AUC worked out at 0.733 and the IC50 came out at 1.32 µM.
Turning to “AN3-CA (endometrium, adherent, top dose 5.12 µM)”, in the test with ZSTK474, the AUC stood at 0.778 and the IC50 was found to be 2.27 µM.
The matching figures for “ARH-77 (myeloma, suspension, top dose 5.12 µM)”: 0.288 and 0.0827 µM.
As for “ASH-3 (thyroid, adherent, top dose 5.12 µM)”, in the test with ZSTK474, the AUC was 0.91 and the IC50 is more than 5.12 µM.
For the cell line “ATN-1 (T-cell lymphoblastic leukaemia, suspension, top dose 5.12 µM)”, in the test with ZSTK474, the AUC amounted to 0.403 and the IC50 came out at 0.177 µM.
Turning to “AU565 (breast, adherent, top dose 5.12 µM)”, in the test with ZSTK474, the AUC was 0.793 and the IC50 was 2.63 µM.
For the cell line “AsPC-1 (pancreas, adherent, top dose 5.12 µM)”, in the test with ZSTK474, the AUC worked out at 0.803 and the IC50 was more than 5.12 µM.
For “BB30-HNC (head and neck, adherent, top dose 5.12 µM)”, in the test with ZSTK474, the AUC amounted to 0.673 and the IC50 was found to be 0.96 µM.
For “BB49-HNC (head and neck, adherent, top dose 5.12 µM)”, in the test with ZSTK474, the AUC amounted to 0.97 and the IC50 was more than 5.12 µM.
On to “BB65-RCC (kidney, adherent, top dose 5.12 µM)”, for which, in the test with ZSTK474, the AUC turned out to be 0.805 and the 50% inhibitory concentration (IC50) worked out at 3.06 µM.
Take “BC-1 (B-cell lymphoma, suspension, top dose 5.12 µM)”: in the test with ZSTK474, the AUC is 0.493 and the IC50 was 0.306 µM.
Turning to “BC-3 (B-cell lymphoma, suspension, top dose 5.12 µM)”, in the test with ZSTK474, the AUC was 0.649 and the IC50 was found to be 0.785 µM.
On to “BCPAP (thyroid, adherent, top dose 5.12 µM)”, for which, in the test with ZSTK474, the AUC came out at 0.766 and the IC50 came out at 1.72 µM.
“COR-L311 (small cell lung carcinoma, suspension)”: in the test with CP724714, the AUC stood at 0.974 and the IC50 was more than 10.2 µM.
As to “KASUMI-1 (acute myeloid leukaemia, suspension)”, in the test with CP724714, the AUC stood at 0.985 and the IC50 is more than 10.2 µM.
